{
  "source": "patent US20210380663A1",
  "about": "(ACCELERON PHARMA, published 2021)",
  "key": {"[1]": {"biological_target": "T1, TGFβ1 (human, UniProt P01137 partial chain)", "assay": "cell-based or functional assay"}, "[2]": {"biological_target": "T2, TGFβ3 (human, UniProt P10600 301-412)", "T2 sequence (looked up)": "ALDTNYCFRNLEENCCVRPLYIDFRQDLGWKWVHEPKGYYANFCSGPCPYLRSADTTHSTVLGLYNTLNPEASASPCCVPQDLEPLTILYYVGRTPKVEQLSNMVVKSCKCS", "assay": "cell-based or functional assay"}, "[3]": {"biological_target": "T3, activin A (UniProt P08476 311-426)", "T3 sequence (looked up)": "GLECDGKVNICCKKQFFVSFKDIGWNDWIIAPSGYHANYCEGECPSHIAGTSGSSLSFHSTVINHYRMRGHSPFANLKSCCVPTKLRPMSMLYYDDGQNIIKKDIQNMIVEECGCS", "assay": "cell-based or functional assay"}, "[4]": {"biological_target": "GDF11 (UniProt O95390 299-407)", "assay": "cell-based or functional assay"}, "[5]": {"biological_target": "T1, TGFβ1", "T1 sequence (P01137 279-390 limits assumed)": "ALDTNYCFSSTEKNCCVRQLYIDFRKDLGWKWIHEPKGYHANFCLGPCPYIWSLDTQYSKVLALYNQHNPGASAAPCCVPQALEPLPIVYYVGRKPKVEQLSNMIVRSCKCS", "assay": "cell-based or functional assay", "remark": "listed apart in the source"}, "[6]": {"biological_target": "T1, TGFβ1", "assay": "SPR (Biacore)"}, "[7]": {"biological_target": "T1, TGFβ1", "assay": "cell-based or functional assay", "remark": "listed apart in the source"}, "[8]": {"biological_target": "T1, TGFβ1", "assay": "cell-based or functional assay", "remark": "listed apart in the source"}},
  "note": "Like-named read-outs stand apart in the source and are kept apart here.",
  "data": [
    {"binder": "hTβRII (G4S)3-hFc (Fc fusion, Expressed in CHO cells) GATIPPHVQKSDVEMEAQKDEIICPSCNRTAHPLRHINNDMIVTDNNGAVKFPQLCKFCDVRFSTCDNQKSCMSNCSITSICEKPQEVCVAVWRKNDENITLETVCHDPKLPYHDFILEDAASPKCIMKEKKKPGETFFMCSCSSDECNDNIIFSEEYNTSNPDTGGGGSGGGGSGGG[sequence of human IgG1 Fc and a few adjoining residues not given]", "values": [
      {"measurement": "IC50; inhibition of TGFβ1 signalling, CAGA12 luciferase reporter in A549 cells", "setting": "[1]", "result": 0.22, "unit": "nM"}
    ]},
    {"binder": "hTβRII (G4S)4-hFc (Fc fusion, Expressed in CHO cells) GATIPPHVQKSDVEMEAQKDEIICPSCNRTAHPLRHINNDMIVTDNNGAVKFPQLCKFCDVRFSTCDNQKSCMSNCSITSICEKPQEVCVAVWRKNDENITLETVCHDPKLPYHDFILEDAASPKCIMKEKKKPGETFFMCSCSSDECNDNIIFSEEYNTSNPDTGGGGSGGGGSGGGGSGGG[sequence of human IgG1 Fc and a few adjoining residues not given]", "values": [
      {"measurement": "IC50; inhibition of TGFβ1 signalling, CAGA12 luciferase reporter in A549 cells", "setting": "[1]", "result": 0.07, "unit": "nM"}
    ]},
    {"binder": "hTβRII extended hinge-hFc (Fc fusion, Expressed in CHO cells) GATIPPHVQKSDVEMEAQKDEIICPSCNRTAHPLRHINNDMIVTDNNGAVKFPQLCKFCDVRFSTCDNQKSCMSNCSITSICEKPQEVCVAVWRKNDENITLETVCHDPKLPYHDFILEDAASPKCIMKEKKKPGETFFMCSCSSDECNDNIIFSEEYNTSNPDTGGG[sequence of human IgG1 Fc not given]", "values": [
      {"measurement": "IC50; inhibition of TGFβ1 signalling, CAGA12 luciferase reporter in A549 cells", "setting": "[1]", "result": 5.67, "unit": "nM"}
    ]},
    {"binder": "hTβRII-hFc (Fc fusion, Expressed in CHO cells) GATIPPHVQKSDVEMEAQKDEIICPSCNRTAHPLRHINNDMIVTDNNGAVKFPQLCKFCDVRFSTCDNQKSCMSNCSITSICEKPQEVCVAVWRKNDENITLETVCHDPKLPYHDFILEDAASPKCIMKEKKKPGETFFMCSCSSDECNDNIIFSEEYNTSNPDTG[sequence of human IgG1 Fc and a few adjoining residues not given]", "values": [
      {"measurement": "IC50; inhibition of TGFβ1 signalling, CAGA12 luciferase reporter in A549 cells", "setting": "[1]", "result": 7.69, "unit": "nM"}
    ]},
    {"binder": "ActRIIB-Fc-(G4S)4G-TGFBRII homodimer (4-arm) (Fc fusion) ActRIIB ECD - GGG - Fc - linker - TGFβRII ECD fusion chain: GASGRGEAETRECIYYNANWELERTNQSGLERCEGEQDKRLHCYASWRNSSGTIELVKKGCWLDDFNCYDRQECVATEENPQVYFCCCEGNFCNERFTHLPEAGGPEVTYEPPPTAPTG[sequence of human IgG1 Fc and a few adjoining residues not given]AGGGGSGGGGSGGGGSGGGGSGTIPPHVQKSDVEMEAQKDEIICPSCNRTAHPLRHINNDMIVTDNNGAVKFPQLCKFCDVRFSTCDNQKSCMSNCSITSICEKPQEVCVAVWRKNDENITLETVCHDPKLPYHDFILEDAASPKCIMKEKKKPGETFFMCSCSSDECNDNIIFSEEYNTSNPD", "values": [
      {"measurement": "IC50; inhibition of TGFβ3 signalling, CAGA12 reporter gene assay in A549 cells", "setting": "[2]", "result": 0.0114, "unit": "nM"},
      {"measurement": "IC50; inhibition of activin A signalling, CAGA12 reporter gene assay in A204 cells", "setting": "[3]", "result": 0.0891, "unit": "nM"},
      {"measurement": "IC50; inhibition of GDF11 signalling, CAGA12 reporter gene assay in A204 cells", "setting": "[4]", "result": 0.171, "unit": "nM"},
      {"measurement": "IC50; inhibition of TGFβ1 signalling, CAGA12 reporter gene assay in A549 cells", "setting": "[5]", "result": 0.0206, "unit": "nM"}
    ]},
    {"binder": "hTβRII (G4S)5-hFc (Fc fusion, Expressed in CHO cells) GATIPPHVQKSDVEMEAQKDEIICPSCNRTAHPLRHINNDMIVTDNNGAVKFPQLCKFCDVRFSTCDNQKSCMSNCSITSICEKPQEVCVAVWRKNDENITLETVCHDPKLPYHDFILEDAASPKCIMKEKKKPGETFFMCSCSSDECNDNIIFSEEYNTSNPDTGGGGSGGGGSGGGGSGGGGSGGG[sequence of human IgG1 Fc and a few adjoining residues not given]", "values": [
      {"measurement": "Kd", "setting": "[6]", "result": 0.0088, "unit": "nM"},
      {"measurement": "IC50 (read off the curve); TGFβ1 (640 pg/mL) signalling, CAGA12 luciferase reporter in A549 cells", "setting": "[7]", "result": "~3", "unit": "ng/mL"},
      {"measurement": "IC50; inhibition of TGFβ1 signalling, CAGA12 luciferase reporter in A549 cells", "setting": "[8]", "result": 0.03, "unit": "nM"}
    ]},
    {"binder": "hTβRII (G4S)6-hFc (Fc fusion, Expressed in CHO cells) GATIPPHVQKSDVEMEAQKDEIICPSCNRTAHPLRHINNDMIVTDNNGAVKFPQLCKFCDVRFSTCDNQKSCMSNCSITSICEKPQEVCVAVWRKNDENITLETVCHDPKLPYHDFILEDAASPKCIMKEKKKPGETFFMCSCSSDECNDNIIFSEEYNTSNPDTGGGGSGGGGSGGGGSGGGGSGGGGSGGG[sequence of human IgG1 Fc and a few adjoining residues not given]", "values": [
      {"measurement": "Kd", "setting": "[6]", "result": 0.0038, "unit": "nM"},
      {"measurement": "IC50 (read off the curve); TGFβ1 (640 pg/mL) signalling, CAGA12 luciferase reporter in A549 cells", "setting": "[7]", "result": "~2", "unit": "ng/mL"},
      {"measurement": "IC50; inhibition of TGFβ1 signalling, CAGA12 luciferase reporter in A549 cells", "setting": "[8]", "result": 0.02, "unit": "nM"}
    ]},
    {"binder": "hTβRII (G4S)2-hFc (Fc fusion, Expressed in CHO cells) GATIPPHVQKSDVEMEAQKDEIICPSCNRTAHPLRHINNDMIVTDNNGAVKFPQLCKFCDVRFSTCDNQKSCMSNCSITSICEKPQEVCVAVWRKNDENITLETVCHDPKLPYHDFILEDAASPKCIMKEKKKPGETFFMCSCSSDECNDNIIFSEEYNTSNPDTGGGGSGGG[sequence of human IgG1 Fc and a few adjoining residues not given]", "values": [
      {"measurement": "IC50; inhibition of TGFβ1 signalling, CAGA12 luciferase reporter in A549 cells", "setting": "[1]", "result": 1.12, "unit": "nM"}
    ]}
  ]
}
